# Measurements published in a collection of fitness landscapes (doi:10.1126/science.1257360).
# This is one part of the list.
# B1: PhoQ; a variant is named by its letters at X, in order, P23837 (parent)
# chain: MKKLLRLFFPLSLRVRFLLATAAVVLVLSLAYGMVALIGYSVSFDKTTFRLLRGESNLFYTLAKWENNKLHVELPENIDKQSPTMTLIYDENGQLLWAQRDVPWLMKMIQPDWLKSNGFHEIEADVNDTSLLLSGDHSIQQQLQEVREDDDDAEMTHSVAVNVYPATSRMPKLTIVVVDTIPVELKSSYMVWSWFIYVLSANLLLVIPLLWVAAWWSLRPIEALAKEVRELEEHNRELLNPATTRELTSLVRNLNRLLKSERERYDKYRTTLTDLTHSLKTPLXXLQXXLRSLRSEKMSVSDAEPVMLEQISRISQQIGYYLHRASMRGGTLLSRELHPVAPLLDNLTSALNKVYQRKGVNISLDISPEISFVGEQNDFVEVMGNVLDNACKYCLEFVEISARQTDEHLYIVVEDDGPGIPLSKREVIFDRGQRVDTLRPGQGVGLAVAREITEQYEGKIVAGESMLGGARMEVIFGRQHSAPKDE
# Variants of: B1
# Experiment: enrichment ratio after two sorts for PhoP signalling (ratio (wild type AVST 3.29)); higher = more functional
# Details: with PhoP (E. coli)
row,Variant,enrichment ratio
1,PQHY,≤ 0.25
2,LFHF,≤ 0.25
3,TAIE,≤ 0.25
4,VYRA,≤ 0.25
5,LFRY,≤ 0.25
6,VWES,≤ 0.25
7,NKGV,≤ 0.25
8,NRCN,≤ 0.25
9,IKPI,3.95
10,KHHL,≤ 0.25
11,KFNA,≤ 0.25
12,ESCE,≤ 0.25
13,SLKN,≤ 0.25
14,YYFR,≤ 0.25
15,KFVL,≤ 0.25
16,VVPT,≤ 0.25
17,SAVK,1.37
18,GDRD,≤ 0.25
19,QFRE,≤ 0.25
20,SRAP,≤ 0.25
21,SHPF,≤ 0.25
22,HIWS,≤ 0.25
23,HEDA,≤ 0.25
24,REWS,≤ 0.25

row,Variant,enrichment ratio
1,TNFV,≤ 0.25
2,IAAE,≤ 0.25
3,HEWG,≤ 0.25
4,ECPD,≤ 0.25
5,SWAE,≤ 0.25
6,ACSK,4.64
7,MKFV,2.26
8,FRRC,≤ 0.25
9,TIHK,3.94
10,NRPT,≤ 0.25
11,VAGC,3.06
12,DVPS,≤ 0.25
13,FRDE,≤ 0.25
14,EVRD,≤ 0.25
15,GDSV,6.2
16,QSNI,≤ 0.25
17,FKTD,≤ 0.25
18,IPEI,≤ 0.25
19,RHSW,≤ 0.25
20,DMDY,≤ 0.25
21,IEQQ,≤ 0.25
22,PYTE,≤ 0.25
23,GSEV,≤ 0.25
24,DCMM,≤ 0.25

row,Variant,enrichment ratio
1,TCGP,1.63
2,PIQA,≤ 0.25
3,FKLN,≤ 0.25
4,FDGW,≤ 0.25
5,SLCK,8.42
6,VNDN,≤ 0.25
7,YEHY,≤ 0.25
8,YETD,≤ 0.25
9,WCDW,≤ 0.25
10,HEIC,≤ 0.25
11,VWVE,≤ 0.25
12,LVED,≤ 0.25
13,GAKR,≤ 0.25
14,AREW,≤ 0.25
15,VTWW,≤ 0.25
16,MDVH,3.03
17,KVGK,≤ 0.25
18,YKRM,≤ 0.25
19,APLT,≤ 0.25
20,FNVC,≤ 0.25
21,WEMS,≤ 0.25
22,TRVP,≤ 0.25
23,ILTD,≤ 0.25
24,GFCS,≤ 0.25

row,Variant,enrichment ratio
1,VQRG,≤ 0.25
2,YVCI,≤ 0.25
3,PWWW,≤ 0.25
4,LVHM,≤ 0.25
5,PTGH,≤ 0.25
6,MSTV,11.1
7,AYCR,≤ 0.25
8,KSSK,≤ 0.25
9,SANK,≤ 0.25
10,YWNH,≤ 0.25
11,LGGW,≤ 0.25
12,FMWG,≤ 0.25
13,IVEW,≤ 0.25
14,HDLY,≤ 0.25
15,PFRP,≤ 0.25
16,NITC,≤ 0.25
17,FEDF,≤ 0.25
18,MNSD,≤ 0.25
19,GPAE,≤ 0.25
20,PARC,≤ 0.25
21,IHVT,≤ 0.25
22,QPLC,≤ 0.25
23,NIKQ,≤ 0.25
24,YWKG,≤ 0.25

row,Variant,enrichment ratio
1,SFYH,≤ 0.25
2,FFYN,≤ 0.25
3,DPYM,≤ 0.25
4,ENLM,≤ 0.25
5,YDRA,≤ 0.25
6,LGFH,0.628
7,GNLS,6.74
8,FMNK,≤ 0.25
9,HVSN,≤ 0.25
10,KEGL,≤ 0.25
11,NLGW,≤ 0.25
12,LTEL,≤ 0.25
13,IQKD,≤ 0.25
14,PTVN,≤ 0.25
15,VNNL,≤ 0.25
16,QLPY,≤ 0.25
17,LYCY,≤ 0.25
18,PRER,≤ 0.25
19,RWCR,≤ 0.25
20,WDQD,≤ 0.25
21,FFYP,≤ 0.25
22,MNMG,≤ 0.25
23,IKAP,≤ 0.25
24,SVYC,1.85

row,Variant,enrichment ratio
1,IVAR,≤ 0.25
2,DEKA,≤ 0.25
3,NMMG,≤ 0.25
4,VSVA,≤ 0.25
5,MHGY,≤ 0.25
6,FPMI,≤ 0.25
7,ITDT,≤ 0.25
8,VWCE,≤ 0.25
9,QKPT,≤ 0.25
10,FWPR,≤ 0.25
11,YEMG,≤ 0.25
12,MFTE,≤ 0.25
13,FMQF,≤ 0.25
14,SPEE,≤ 0.25
15,SAPV,5.29
16,KKKN,≤ 0.25
17,QAKG,≤ 0.25
18,DRCI,≤ 0.25
19,WNFD,≤ 0.25
20,VRYM,≤ 0.25
21,SYWQ,≤ 0.25
22,PMVM,≤ 0.25
23,MTIV,≤ 0.25
24,WHID,≤ 0.25

row,Variant,enrichment ratio
1,WDTM,≤ 0.25
2,RIFF,≤ 0.25
3,EKNC,≤ 0.25
4,YWPV,0.6
5,PDCQ,≤ 0.25
6,LGWR,≤ 0.25
7,QSQY,≤ 0.25
8,TYQQ,≤ 0.25
9,SFWQ,≤ 0.25
10,IWFH,≤ 0.25
11,PHLT,≤ 0.25
12,YGIL,1.43
13,NDMR,≤ 0.25
14,LGYE,≤ 0.25
15,YRYT,≤ 0.25
16,TPPV,≤ 0.25
17,WSLV,5.78
18,TQWA,17.1
19,DQYH,≤ 0.25
20,LSYG,≤ 0.25
21,LPFW,≤ 0.25
22,EYGA,≤ 0.25
23,LHVA,≤ 0.25
24,RRKI,≤ 0.25

row,Variant,enrichment ratio
1,IDTW,≤ 0.25
2,RAVP,≤ 0.25
3,TWLW,≤ 0.25
4,MNHS,1.1
5,QDIN,≤ 0.25
6,TANN,3.35
7,ISMH,≤ 0.25
8,ENYI,≤ 0.25
9,RKKQ,≤ 0.25
10,IHSD,≤ 0.25
11,VGVA,≤ 0.25
12,DFRS,≤ 0.25
13,ACNM,≤ 0.25
14,PVRM,≤ 0.25
15,DNDL,≤ 0.25
16,SWNT,≤ 0.25
17,MSHH,≤ 0.25
18,SKAR,≤ 0.25
19,MGLL,14.3
20,PYQY,≤ 0.25
21,WREA,≤ 0.25
22,NYPG,≤ 0.25
23,QIPS,≤ 0.25
24,YLDG,≤ 0.25

row,Variant,enrichment ratio
1,FSND,≤ 0.25
2,WPVT,≤ 0.25
3,LIHT,≤ 0.25
4,RRVY,≤ 0.25
5,HMPR,≤ 0.25
6,IKLW,≤ 0.25
7,ERWW,≤ 0.25
8,VHVQ,≤ 0.25
9,DQLG,≤ 0.25
10,GPCQ,≤ 0.25
11,LWHM,≤ 0.25
12,LCLW,≤ 0.25
13,MWIS,≤ 0.25
14,PYSR,≤ 0.25
15,KDHP,≤ 0.25
16,VMAY,≤ 0.25
17,AHFV,≤ 0.25
18,KCYH,≤ 0.25
19,QVYQ,≤ 0.25
20,SIDS,≤ 0.25
21,MQLD,≤ 0.25
22,QGWE,14.3
23,FWDP,≤ 0.25
24,ERQD,≤ 0.25

row,Variant,enrichment ratio
1,PFCN,≤ 0.25
2,FKWY,≤ 0.25
3,SYCF,≤ 0.25
4,TANK,≤ 0.25
5,FFTC,≤ 0.25
6,KNLA,≤ 0.25
7,VVFL,≤ 0.25
8,NSPQ,≤ 0.25
9,LTGA,≤ 0.25
10,DPPI,≤ 0.25
11,AGKW,≤ 0.25
12,SMWI,≤ 0.25
13,KGLF,≤ 0.25
14,TEWY,0.326
15,MTMD,≤ 0.25
16,PCHD,≤ 0.25
17,MPWW,≤ 0.25
18,PPAL,≤ 0.25
19,PCVG,≤ 0.25
20,CFAV,≤ 0.25
21,AIVR,8.99
22,IQKG,≤ 0.25
23,FWVA,≤ 0.25
24,HMSE,≤ 0.25

row,Variant,enrichment ratio
1,KTCG,≤ 0.25
2,LWSR,≤ 0.25
3,NNQE,≤ 0.25
4,NPDK,≤ 0.25
5,FQTR,≤ 0.25
6,NTLY,≤ 0.25
7,VYQN,≤ 0.25
8,EEGS,≤ 0.25
9,QAQR,≤ 0.25
10,KMLK,≤ 0.25
11,ETTN,≤ 0.25
12,EYAC,≤ 0.25
13,PEPC,≤ 0.25
14,HESQ,≤ 0.25
15,SGQS,3.13
16,GSIL,7.92
17,IDTY,≤ 0.25
18,KFFG,≤ 0.25
19,TTTE,4.58
20,QIKH,≤ 0.25
21,ALAP,≤ 0.25
22,AQKV,≤ 0.25
23,GIFC,≤ 0.25
24,RCGQ,≤ 0.25

row,Variant,enrichment ratio
1,RTMM,≤ 0.25
2,QKMG,≤ 0.25
3,ISQD,≤ 0.25
4,EPTY,≤ 0.25
5,LAKH,≤ 0.25
6,YYEI,≤ 0.25
7,IRPG,≤ 0.25
8,RTCM,≤ 0.25
9,KTHA,≤ 0.25
10,YQWE,≤ 0.25
11,NCHF,≤ 0.25
12,DPCD,≤ 0.25
13,KDQG,≤ 0.25
14,MIKA,≤ 0.25
15,MLDF,≤ 0.25
16,PCQW,≤ 0.25
17,SVYS,0.435
18,QDIF,≤ 0.25
19,CTLV,0.326
20,DLNI,≤ 0.25
21,IIFE,≤ 0.25
22,IWKH,≤ 0.25
23,PKRI,≤ 0.25
24,RESF,≤ 0.25

row,Variant,enrichment ratio
1,WIML,≤ 0.25
2,MVIY,≤ 0.25
3,HKRG,≤ 0.25
4,KVTA,≤ 0.25
5,VECW,≤ 0.25
6,ELEI,≤ 0.25
7,YCSH,0.253
8,IGPL,≤ 0.25
9,LQDS,≤ 0.25
10,NKAK,≤ 0.25
11,SCHL,≤ 0.25
12,YNWF,≤ 0.25
13,FHNL,≤ 0.25
14,FLQY,≤ 0.25
15,YKMR,≤ 0.25
16,FDAF,≤ 0.25
17,EDPV,≤ 0.25
18,ILAQ,≤ 0.25
